For experiment [1], the system named is HSkMC (human skeletal muscle cells). Description: cytotoxicity call (relative viability < 0.9). The settings on record: 10 µM.
For experiment [2], the system named is HepG2. Description: cytotoxicity call (relative viability < 0.9). The settings on record: 10 µM.
In experiment [3] the test system is S. aureus RN4220. Description: growth inhibition call (relative growth <= 0.2). The settings on record: 50 µM.

Each structure is given as a SMILES string. The list shows a part of the results.

In the antibiotic and cytotoxicity screens of Wong et al. (2023) one finds cytotoxicity call and growth inhibition call data, which are given here for 27 molecules.

As for `CC(=O)n1cc([C@@H]2C=C(C(=O)N3CCN(Cc4ccccc4)CC3)O[C@H](OCc3ccc(COC(=O)NCCCCCC(=O)NO)cc3)C2)c2ccccc21`, the cytotoxicity call in experiment [1] and in experiment [2] was “inactive” in each case. Further, the growth inhibition call in experiment [3] is “inactive”.

Take `Cc1cc(C(=O)Nc2cccc3c2O[C@@H](CN(C)C(=O)Nc2c(C)noc2C)[C@H](C)CN([C@@H](C)CO)C3=O)n(C)n1`: the cytotoxicity call in experiment [1] and in experiment [2] was “inactive” each time. The growth inhibition call in experiment [3] is “inactive”.

Turning to `COc1ccc(C#Cc2ccc3c(c2)[C@]2(C(=O)N3)[C@H](C(=O)O)[C@H]3C(=O)O[C@H](c4ccccc4)[C@H](c4ccccc4)N3[C@@H]2c2ccc(O)cc2)cc1`, the cytotoxicity call in experiment [1] and in experiment [2] was “inactive” throughout. Besides, the growth inhibition call in experiment [3] was “inactive”.

Consider `C[C@H]1CN([C@@H](C)CO)C(=O)c2cccc(NC(=O)Nc3ccc(C(F)(F)F)cc3)c2O[C@H]1CN(C)S(=O)(=O)c1ccc(Cl)cc1`, for which the cytotoxicity call in experiment [1] and in experiment [2] was “active” each time. Moreover, the growth inhibition call in experiment [3] was “inactive”.

As to `COc1ccc(NC(=O)N(C)C[C@@H]2Oc3c(NC(=O)C4CC4)cccc3C(=O)N([C@@H](C)CO)C[C@@H]2C)cc1`, the cytotoxicity call in experiment [1] and in experiment [2] was “inactive” in each case. Moreover, the growth inhibition call in experiment [3] is “inactive”.

Regarding `C=C(C)[C@H]1CC=C(C)CC1`, the cytotoxicity call in experiment [1] and in experiment [2] was “inactive” throughout. For the same molecule, in experiment [3], the growth inhibition call was “inactive”.

Turning to `C[C@H]1CN([C@@H](C)CO)C(=O)c2cc(NS(=O)(=O)c3cccs3)ccc2O[C@H]1CN(C)S(C)(=O)=O`, the cytotoxicity call in experiment [1] and in experiment [2] was “inactive” in each case. Moreover, in experiment [3], the growth inhibition call is “inactive”.

With `O=C(O)Cn1cnc(C2CC2)cc1=O`, the cytotoxicity call in experiment [1] and in experiment [2] was “inactive” each time. The growth inhibition call in experiment [3] was “inactive”.

With `CCCNC(=O)N1C[C@H](C)[C@H](OC)CN(C)C(=O)c2ccc(NS(=O)(=O)CC(F)(F)F)cc2OC[C@@H]1C`, the cytotoxicity call in experiment [1] and in experiment [2] was “inactive” each time. In addition, the growth inhibition call in experiment [3] is “inactive”.

For `CC(C)NC(=O)N(C)C[C@@H]1OCCCC[C@H](C)Oc2ccc(NC(=O)Nc3cccc4ccccc34)cc2C(=O)N([C@H](C)CO)C[C@@H]1C`, the cytotoxicity call in experiment [1] and in experiment [2] was “inactive” throughout. Further, in experiment [3], the growth inhibition call is “inactive”.

For `O=C1C(CCC(O)c2ccc(F)cc2)C(c2ccc(O)cc2)N1c1ccc(F)cc1` (stereo unspecified), the cytotoxicity call in experiment [1] and in experiment [2] was “inactive” each time. Also, the growth inhibition call in experiment [3] was “inactive”.

Take `C[C@H](CO)N1C[C@H](C)[C@H](CN(C)Cc2cccc(C(F)(F)F)c2)Oc2ncc(-c3cccc(C(F)(F)F)c3)cc2C1=O`: in experiment [1], the cytotoxicity call is “active”. Besides, in experiment [2], the cytotoxicity call is “inactive”. In addition, the growth inhibition call in experiment [3] is “inactive”.

Take `COc1ccc(NC(=O)N(C)C[C@H]2OCCCC[C@@H](C)Oc3ccc(NC(=O)NC(C)C)cc3C(=O)N([C@@H](C)CO)C[C@H]2C)cc1`: the cytotoxicity call in experiment [1] and in experiment [2] was “inactive” each time. Besides, the growth inhibition call in experiment [3] is “inactive”.

For the molecule `O=C(O)[C@H](Cc1ccc(Nc2nccc3ccncc23)cc1)NC1=C(Br)C(=O)C12CCCCC2`, the cytotoxicity call in experiment [1] and in experiment [2] was “inactive” each time. Moreover, the growth inhibition call in experiment [3] was “inactive”.

`CS(=O)(=O)N1C[C@H]2CN(C(=O)c3cnccn3)C[C@@H]2C1`: the cytotoxicity call in experiment [1] and in experiment [2] was “inactive” each time. Besides, the growth inhibition call in experiment [3] was “inactive”.

Take `C[C@H](CO)N1C[C@H](C)[C@H](CN(C)Cc2ccc(Oc3ccccc3)cc2)Oc2c(NC(=O)C3CCOCC3)cccc2C1=O`: the cytotoxicity call in experiment [1] and in experiment [2] was “inactive” in each case. The growth inhibition call in experiment [3] is “inactive”.

Regarding `C[C@@H]1CN([C@H](C)CO)C(=O)CCCn2nncc2CO[C@@H]1CN(C)Cc1ccc2c(c1)OCCN2C`, the cytotoxicity call in experiment [1] and in experiment [2] was “inactive” in each case. Besides, the growth inhibition call in experiment [3] is “inactive”.

On to `C/C=C/c1ccc2c(c1)O[C@H](CN(C)C(=O)c1ccc3c(c1)OCO3)[C@@H](C)CN([C@H](C)CO)S2(=O)=O`, for which the cytotoxicity call in experiment [1] and in experiment [2] was “inactive” each time. In addition, the growth inhibition call in experiment [3] was “inactive”.

As for `C[C@H](CO)N1C[C@H](C)[C@@H](CN(C)S(=O)(=O)c2ccccc2)Oc2ccc(NC(=O)CCN3CCOCC3)cc2C1=O`, the cytotoxicity call in experiment [1] and in experiment [2] was “inactive” in each case. The growth inhibition call in experiment [3] is “inactive”.

For the molecule `C[C@@H]1CCCCO[C@@H](CN(C)CC2CCCCC2)[C@H](C)CN([C@H](C)CO)C(=O)c2cc(NC(=O)Nc3cccc4ccccc34)ccc2O1`, the cytotoxicity call in experiment [1] and in experiment [2] was “active” each time. In addition, in experiment [3], the growth inhibition call is “inactive”.

On to `Cc1n[nH]c(NN2CCOCC2)nc1=O`, for which the cytotoxicity call in experiment [1] and in experiment [2] was “inactive” each time. Moreover, the growth inhibition call in experiment [3] is “inactive”.

As to `O=C(C[C@H]1C[C@@H]2c3cc(NC(=O)C4CCOCC4)ccc3O[C@@H]2[C@H](CO)O1)NCc1cc(F)ccc1F`, the cytotoxicity call in experiment [1] and in experiment [2] was “inactive” each time. Moreover, the growth inhibition call in experiment [3] was “inactive”.

On to `C[C@H](CO)N1C[C@H](C)[C@H](CN(C)Cc2ccc(Oc3ccccc3)cc2)Oc2ccc(NS(=O)(=O)c3cccs3)cc2C1=O`, for which the cytotoxicity call in experiment [1] and in experiment [2] was “inactive” each time. Further, the growth inhibition call in experiment [3] was “inactive”.

Consider `Cc1noc(C)c1NC(=O)N(C)C[C@@H]1Oc2ccc(NC(=O)Nc3cccc4ccccc34)cc2CC(=O)N([C@@H](C)CO)C[C@@H]1C`, for which the cytotoxicity call in experiment [1] and in experiment [2] was “inactive” each time. The growth inhibition call in experiment [3] was “inactive”.

In the case of `CO[C@@H]1CN(C)C(=O)c2cc(NC(=O)Nc3cccc(F)c3)ccc2OC[C@@H](C)N(C(=O)Nc2cccc(F)c2)C[C@H]1C`, the cytotoxicity call in experiment [1] and in experiment [2] was “inactive” in each case. In experiment [3], the growth inhibition call is “inactive”.

Turning to `C[C@H](CO)N1C[C@H](C)[C@H](CN(C)S(=O)(=O)c2ccccc2)Oc2ccc(NS(=O)(=O)c3ccc(F)cc3)cc2CC1=O`, the cytotoxicity call in experiment [1] and in experiment [2] was “inactive” in each case. Besides, in experiment [3], the growth inhibition call was “inactive”.

Consider `CN(C)CCCNC(=O)C[C@@H]1CC[C@H]2[C@@H](COC[C@H](O)CN2S(=O)(=O)c2ccc(F)cc2)O1`, for which the cytotoxicity call in experiment [1] and in experiment [2] was “inactive” throughout. Besides, the growth inhibition call in experiment [3] was “inactive”.
